# Experimental data: PMC6919601, “Identification of Plasmodium dipeptidyl aminopeptidase allosteric inhibitors by high throughput screening” (PLoS ONE, 2019)
# Among all 110,000 compounds or so, about 230 (0.21%) showed an effect of 50% or more. This is one part of the list.
# Target: DPAP1 (Plasmodium falciparum, UniProt Q8IIJ9)
# Assay: primary screen, percent inhibition; read by cleavage of a fluorogenic dipeptide substrate; higher = more effect of the substance
# Design: species or system P. falciparum D10 trophozoite lysates; single well
# 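Also: 30 min substrate incubation versus DMSO and 10 µM JCP410 controls.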
# DPAP1, sequence (Q8IIJ9 whole entry, looked up): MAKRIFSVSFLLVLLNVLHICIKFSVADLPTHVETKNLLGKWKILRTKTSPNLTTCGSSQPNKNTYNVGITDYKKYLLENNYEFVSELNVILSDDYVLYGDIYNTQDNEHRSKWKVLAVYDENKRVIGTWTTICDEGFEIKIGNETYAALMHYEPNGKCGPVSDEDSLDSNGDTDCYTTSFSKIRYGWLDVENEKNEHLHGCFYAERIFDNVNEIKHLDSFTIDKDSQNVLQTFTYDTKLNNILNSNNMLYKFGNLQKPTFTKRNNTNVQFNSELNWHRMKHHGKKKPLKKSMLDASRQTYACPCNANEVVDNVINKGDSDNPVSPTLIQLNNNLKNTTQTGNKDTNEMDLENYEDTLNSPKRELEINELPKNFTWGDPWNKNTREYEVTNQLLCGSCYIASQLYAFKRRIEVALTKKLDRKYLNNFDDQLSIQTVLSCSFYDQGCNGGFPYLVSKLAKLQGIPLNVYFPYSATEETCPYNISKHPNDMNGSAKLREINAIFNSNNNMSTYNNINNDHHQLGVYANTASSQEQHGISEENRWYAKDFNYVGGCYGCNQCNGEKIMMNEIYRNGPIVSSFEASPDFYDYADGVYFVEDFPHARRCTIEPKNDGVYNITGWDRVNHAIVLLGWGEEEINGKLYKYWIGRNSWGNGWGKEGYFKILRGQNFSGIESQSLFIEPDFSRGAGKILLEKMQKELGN
row,SMILES,% Inhibition @ 10 uM [%]
1,COc1ccccc1-c1nsnc1C(=O)O,-0.969
2,CC1=C(C(=O)Nc2cc(C)ccn2)C(c2cccc(Oc3ccccc3)c2)C2=C(O)CCCC2=N1 (stereo not drawn),5.9
3,COCCNC(=O)C1c2ccccc2C(=O)N(CCOC)C1c1cn(C)c2ccccc12 (stereo not drawn),7.15
4,O=C(NCCCNC(=O)c1cccnc1)c1cccnc1,1.91
5,O=C(O)c1ccc(-c2ccc(/C=C3/Sc4ccccc4C3=O)o2)cc1,1.29
6,O=[N+]([O-])c1cccc(C2N=C(c3ccccc3)NC(c3ccccc3)=N2)c1,6.94
7,Oc1cccc(Nc2nc(-c3ccncc3)cs2)c1,1.72
8,NC(=O)C1CCN(Cc2cccc(Br)c2)CC1,-1.78
9,CN(C)c1cc[n+](Cc2ccccc2)cc1,-4.64
10,CC1=C(C(=O)Nc2cccnc2)C(c2ccncc2)n2ncnc2N1 (stereo not drawn),4.09
11,COC(=O)C1=C(C)N(Cc2cccnc2)C(=O)/C1=C\c1ccccc1C(F)(F)F,3.79
12,O=C1CCC2(CCC(=O)N(Cc3ccccc3)C2=O)C(=O)N1Cc1ccccc1,0.661
13,CCOC(=O)CN1CCN(c2ccc([N+](=O)[O-])cc2)CC1,-4.58
14,Cc1cc(C)nc(NS(=O)(=O)c2ccc(N/C=C\C(=O)c3ccc4c(c3)OCO4)cc2)n1,0.674
15,O=c1/c(=C/c2c[nH]nc2-c2cccs2)sc2nc3ccccc3n12,-0.703
16,COc1ccc(-n2nc3c(c2NC(=O)c2cccc(C(F)(F)F)c2)CS(=O)(=O)C3)cc1,3.66
17,Cn1c(C(=O)O)c(CNCCc2ccccc2Cl)c2ccccc21,-6.04
18,CS/C(=N\Cc1ccccc1)Nc1cc(-c2ccccc2)[nH]n1,-4.07
19,COc1cccc(OC)c1C(=O)Nc1ccc(S(=O)(=O)N2CCC(C)CC2)cc1,-1.11
20,COc1cc(OC)cc(C(=O)Nc2ccccc2Br)c1,-2.32
21,CN1CCCN(C2CCCCCCC2)CC1,2.7
22,COc1ccc(N(CC(=O)Nc2cccc(C(F)(F)F)c2)S(C)(=O)=O)cc1,-1.42
23,C=CCN(Cc1nc(-c2ccc(Cl)cc2)no1)C(=O)NCC,0.00706
24,CC(C)N(C(=O)c1ccc(C(=O)Nc2ccccc2)cc1)C(C)C,-2
25,Cc1cc(C)c2c(n1)SCC(=O)N2CC(=O)NC1CCCCC1C (stereo not drawn),2.65
26,CCC(=O)Nc1nc2nc(C)c(C)c(O)n2n1,-6.81

row,SMILES,% Inhibition @ 10 uM [%]
1,Nc1c(S(=O)(=O)Cc2ccc(Cl)cc2)sc2nc3c(cc12)CCCC3,-3.75
2,CC1(C)CC(=O)C2=C(C1)OC(N)=C(C#N)C2c1cccc(Cl)c1Cl (stereo not drawn),1.54
3,CCCC(=O)Nc1ccc(NC(=O)C(C)C)c(OC)c1,15.1
4,O=C(O)CNC(=O)/C=C/c1ccc(Cl)cc1Cl,2.35
5,Cc1ccc(NC(=O)C2C3C=CC(C3)C2C(=O)O)cc1 (stereo not drawn),1.64
6,O=C(Nc1ccc(S(=O)(=O)NC2CCCCC2)cc1)C1CC1,-8.88
7,CCC(C(=O)Nc1c(C)cc(C)cc1C)N1CCCCCC1 (stereo not drawn),-0.415
8,Cc1cc(C)c2[nH]ncc2c1,-1.7
9,Cc1ccc(NC(=O)c2cnn(-c3ccccc3)c2C)c(C)c1,-2.85
10,Cc1ccc(NC(=O)Nc2c(C)cc(C)cc2C)cc1,3.09
11,Cc1ccc2oc(=O)c3cnn(CC(=O)NC(C)c4ccc5c(c4)OCCO5)c3c2c1 (stereo not drawn),-3.45
12,Cc1c(C(=O)N2CCOCC2)sc2ncn(CC(=O)N3CCC(C)CC3)c(=O)c12,5.85
13,N#Cc1ccc(Oc2ccc(N3C(=O)C4C5C=CC(C5)C4C3=O)cc2)cc1 (stereo not drawn),2.09
14,Cc1c(CNC(C)CCc2ccccc2)c(C(=O)O)c(C)n1Cc1cccc(Cl)c1 (stereo not drawn),4.53
15,CCN1C(=O)/C(=C\c2cccc(O)c2)S/C1=N/c1ccccc1,-3.37
16,CCOC(=O)c1c(C)n(-c2ccc(C)cc2)c2ccc(OCC(O)CN3CCN(CCO)CC3)cc12 (stereo not drawn),0.275
17,COCCCNC(=O)CSc1[nH]c(-c2ccc(F)cc2)nc1-c1ccc(C)cc1,0.163
18,Cc1cc(C)nc(NC(=O)COc2ccc(Cl)cc2)c1,-2.15
19,O=C(O)c1cccc(NC(=O)c2cccc(C(=O)Nc3cccc(C(=O)O)c3)c2)c1,3.25
20,CC1(C)CC(=O)C2=C(C1)Oc1ccccc1C2CC(=O)c1ccc(O)cc1 (stereo not drawn),-2.15
21,COc1ccc(Cl)cc1C(=O)NCCc1nc2ccccc2[nH]1,-0.348
22,COc1cc(/C=C2/SC(=O)NC2=O)cc(OC)c1OC,-4.75
23,COC(=O)c1ccc(-c2ccco2)n1CC(=O)N1CCN(C(=O)c2ccco2)CC1,-3.8
24,COC(=O)c1ccc(C2CC(=O)NC3=C2C(=O)CC(c2ccccc2Cl)C3)cc1 (stereo not drawn),1.39
25,COc1ccc(C2C(=O)N(C3CCCCC3)CC(=O)N2CCc2ccccc2)cc1OC (stereo not drawn),-2.14
